Assay results as given in the supplement of paper PMC11417369.
± gives the standard deviation of the averaged measurements. The list shows a part of the results.

What follows are sequences tested on PfAP2-I AP2 domain 3 (GST-tagged) (assay: gcPBM binding intensity (ln(normalized median fluorescence intensity)); higher = stronger DNA binding).
Method in brief: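 The highest Masliner-normalised natural-log median intensity across replicate spots of either probe orientation is reported as binding intensity. GST-tagged P. falciparum DNA-binding domains expressed in E. coli were applied for 1 h to an Agilent 4 × 180k array of primer-extended double-stranded 36-bp intergenic genomic probes plus negative controls, and bound protein was detected with Alexa488 anti-GST antibody and scanned at 488 nm.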

**Q.** For “TAATTTAGATATATAAAGAATTAAAGTTAACATTCT [CACACA_negctrl_site726]”, which “gcPBM binding intensity (ln)” value is on record?
**A.** The value was 7.25 ± 0.64.

**Q.** With “TTAAGAAAAAAAAAAAGTACACACATATAATATATA [XGTACX_site6268]” as the sequence, how does the “gcPBM binding intensity (ln)” value read?
**A.** Its value is 7.79 ± 0.45.

**Q.** For “TTTTTCAGATCCTATATAGTATCATATAAATTCCAT [CACACA_negctrl_site56]”, which “gcPBM binding intensity (ln)” value is on record?
**A.** The value was 7.59 ± 0.58.

**Q.** Which “gcPBM binding intensity (ln)” value does the source give for “ATACAACTAATAAGTAGTACAATATACATATATTAT [XGTACX_site7086]” here?
**A.** Its value is 7.91 ± 0.11.

**Q.** For “ATATATATATATATATATATATATATATATTATATA [XGTACX_negctrl_site48]”, which “gcPBM binding intensity (ln)” value is on record?
**A.** The value was 8.94 ± 0.59.

**Q.** With “ATATGACTGTTCATTTGTACGTATAATTATATACGT [XGTACX_site3372]” as the sequence, how does the “gcPBM binding intensity (ln)” value read?
**A.** The value was 8.02 ± 0.58.

**Q.** How did the “gcPBM binding intensity (ln)” value turn out when “AAAAAAAATGAAAGGTGTACACATACAAACATAGAA [XGTACX_site3517]” was run?
**A.** The value was 8.78 ± 0.44.

**Q.** Which “gcPBM binding intensity (ln)” value does the source give for “TTTTTTTTTTTTTTTTATTTATATATATATATATAT [CACACA_negctrl_site582]” here?
**A.** The value was 9.34 ± 0.25.

**Q.** Which “gcPBM binding intensity (ln)” value does the source give for “AAATGAGATATAAAATGTACATATTGTAAGTAAACA [XGTACX_site1237]” here?
**A.** The value was 7.82 ± 0.55.

**Q.** With “TTAATTATATCAGGACGTACTAATATAAATATATAT [XGTACX_site8909]” as the sequence, how does the “gcPBM binding intensity (ln)” value read?
**A.** The value was 7.83 ± 0.18.

**Q.** How did the “gcPBM binding intensity (ln)” value turn out when “GGGATATATTATTATACACACATATATAAAAGCTTT [CACACA_site2445]” was run?
**A.** The value was 7.87 ± 0.35.

**Q.** With “GTGCAAAATATTTTTACACACAAATTTTTACAACAG [CACACA_site3357]” as the sequence, how does the “gcPBM binding intensity (ln)” value read?
**A.** Its value is 9.99 ± 0.63.

**Q.** “AAAAATAAATAAGACACACACAAAAAAAAAAAAAAA [CACACA_site1432]” was tested. Which “gcPBM binding intensity (ln)” value did it give?
**A.** The value was 7.93 ± 0.51.

**Q.** For “AAATATTTTTAGAGTGCATGTAATAAAAATATAATG [TGCATGCA_site19]”, which “gcPBM binding intensity (ln)” value is on record?
**A.** Its value is 9.16 ± 0.24.

**Q.** “GAAATAAGTTAAAATAGTACGTAGTGTTCCTTAAGT [XGTACX_site6557]” was tested. Which “gcPBM binding intensity (ln)” value did it give?
**A.** Its value is 7.83 ± 0.64.

**Q.** With “CGTTATATATGTATTACATGCAATATATGTACGTAA [TGCATGCA_site274]” as the sequence, how does the “gcPBM binding intensity (ln)” value read?
**A.** Its value is 7.83 ± 0.56.

**Q.** With “TAAATAATATCCCTTTGTACGTATTTTTTTTTATTA [XGTACX_site7303]” as the sequence, how does the “gcPBM binding intensity (ln)” value read?
**A.** The value was 7.84 ± 0.57.

**Q.** With “TTAAAAATAATATATTGTACACATACTTATTTTAAT [XGTACX_site1348]” as the sequence, how does the “gcPBM binding intensity (ln)” value read?
**A.** The value was 8.1 ± 0.16.

**Q.** Which “gcPBM binding intensity (ln)” value does the source give for “TTAGGAAAACAAAAATGTACGCATATATATTATTGA [XGTACX_site8288]” here?
**A.** Its value is 7.71 ± 0.66.

**Q.** How did the “gcPBM binding intensity (ln)” value turn out when “AAGACTTCTCCATATACACACACCAACAAATATAAA [CACACA_site2779]” was run?
**A.** The value was 8.12 ± 0.45.

**Q.** For “GTTTATTCATCATACGGTACACATAAATAATATATA [XGTACX_site6931]”, which “gcPBM binding intensity (ln)” value is on record?
**A.** The value was 8.19 ± 0.45.

**Q.** How did the “gcPBM binding intensity (ln)” value turn out when “GTGCATATACAAATATGTACTTAAACGTTTTTTTTT [XGTACX_site7362]” was run?
**A.** The value was 9.86 ± 0.57.

**Q.** How did the “gcPBM binding intensity (ln)” value turn out when “TTTTTCTTTTGATGTTGTACATATATATCATATAAT [XGTACX_site1189]” was run?
**A.** Its value is 7.89 ± 0.44.

**Q.** Which “gcPBM binding intensity (ln)” value does the source give for “TTCGTTTAAATCAAGTGTACATATTATATATAATAT [XGTACX_site7599]” here?
**A.** Its value is 7.92 ± 0.11.

**Q.** How did the “gcPBM binding intensity (ln)” value turn out when “ATTTTTTTTTTTTTTTTTTGGTTTTCTTTAGGAGTT [CACACA_negctrl_site1258]” was run?
**A.** The value was 7.54 ± 0.54.

**Q.** How did the “gcPBM binding intensity (ln)” value turn out when “GATGAATAAATCAAAGCACACATACACCCACATATA [CACACA_site7986]” was run?
**A.** Its value is 8.6 ± 0.21.

**Q.** With “TTTCTTAAAATGTTATGTACATATTTCGTTTCAAAG [XGTACX_site6102]” as the sequence, how does the “gcPBM binding intensity (ln)” value read?
**A.** Its value is 7.8 ± 0.41.

**Q.** For “TCTTTTTAATTTATATGTACTTATATTAATTATAAG [XGTACX_site7524]”, which “gcPBM binding intensity (ln)” value is on record?
**A.** The value was 7.75 ± 0.42.

**Q.** ATATATTTCAAAGGGGTGCAGGCATATTTAAGCAAA was tested. Which “gcPBM binding intensity (ln)” value did it give?
**A.** The value was 8.88 ± 0.13.

**Q.** “TTAATAAAAGCCCATGCACACCTTAGAAAGTTTTAT [CACACA_site8003]” was tested. Which “gcPBM binding intensity (ln)” value did it give?
**A.** Its value is 7.93 ± 0.52.

**Q.** “TGAGCTTCAACAATATGTACATAAAATATATTACAT [XGTACX_site4763]” was tested. Which “gcPBM binding intensity (ln)” value did it give?
**A.** The value was 7.67 ± 0.5.

**Q.** “GTATTATAGTATAATACACACCCAAATATTAAAAAG [CACACA_site7404]” was tested. Which “gcPBM binding intensity (ln)” value did it give?
**A.** Its value is 8.09 ± 0.49.

**Q.** For ATTGAATATGGATATGTGCACATATGTATATAAGTA, which “gcPBM binding intensity (ln)” value is on record?
**A.** Its value is 9.66 ± 0.4.

**Q.** With “AAAACATTGTTGAACTGTTTTATTTATAAATATAAG [XGTACX_negctrl_site393]” as the sequence, how does the “gcPBM binding intensity (ln)” value read?
**A.** The value was 7.68 ± 0.52.

**Q.** Which “gcPBM binding intensity (ln)” value does the source give for “ATATATATACTGTGTACACACATATGTATTTATATA [CACACA_site4600]” here?
**A.** Its value is 8.58 ± 0.48.

**Q.** With “TGCTTTATTATTTATTGTACATGTAAAATGAGAGAG [XGTACX_site2288]” as the sequence, how does the “gcPBM binding intensity (ln)” value read?
**A.** The value was 8.5 ± 0.11.

**Q.** For “TTTGTTTAAATTAAATGTACATAAAGAATAATATAT [XGTACX_site5093]”, which “gcPBM binding intensity (ln)” value is on record?
**A.** Its value is 8.26 ± 0.36.

**Q.** Which “gcPBM binding intensity (ln)” value does the source give for “TAATAACTACAAAAAAAAAAGAAAAATAGAAAAAGG [CACACA_negctrl_site1102]” here?
**A.** The value was 7.75 ± 0.67.

**Q.** How did the “gcPBM binding intensity (ln)” value turn out when “TCGTGTTAAACTTTTACACACAAACTTGCAATAATT [CACACA_site7745]” was run?
**A.** Its value is 9.18 ± 0.085.

**Q.** With “AATTATATGAAATAAACACACATATGTAATATTACA [CACACA_site1928]” as the sequence, how does the “gcPBM binding intensity (ln)” value read?
**A.** Its value is 7.68 ± 0.49.

**Q.** With “AGAAGGTAAATAATTTACCCATATATATAAATATAT [GTGCAC_negctrl_site631]” as the sequence, how does the “gcPBM binding intensity (ln)” value read?
**A.** Its value is 7.33 ± 0.52.

**Q.** Which “gcPBM binding intensity (ln)” value does the source give for “TTATTATTTCTTAGTAGTACTATATAATTTTTTTTT [XGTACX_site1847]” here?
**A.** Its value is 7.65 ± 0.45.

**Q.** For “ATAGTATCTGGTAGCTGTACGAGTCGTAGAGAGTAG [XGTACX_site2546]”, which “gcPBM binding intensity (ln)” value is on record?
**A.** Its value is 8.45 ± 0.39.

**Q.** With “GGAAAATTATCAATAGCATGCAAAATGTGAATATTA [TGCATGCA_site901]” as the sequence, how does the “gcPBM binding intensity (ln)” value read?
**A.** Its value is 7.61 ± 0.7.
